Where “and” joins values, the source holds several entries; their conditions need not be identical. Equal entries are not always repeated. The campaign covered roughly 16,000 compounds. About 40 (0.2%) were called active. About 1% were inconclusive and are not listed. Calls come from the whole dose curve; as a rule, active = well fitted activation curve with a large enough effect; inconclusive = small, poorly fitted or top-dose-only effect, or another doubt; inactive = no such curve, though single readings can be large or run the other way. The list shows a part of the results.
target: Rap guanine nucleotide exchange factor 4 (Homo sapiens) (UniProt Q8WZA2); assay: Validation qHTS for agonist of cAMP-regulated guanine nucleotide exchange factor 4 (EPAC2); settings: EPAC2 Rap1B BODIPY-GDP exchange, fluorescence; activation: stronger effect = higher value;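 note: exchange makes BODIPY-GDP fluorescence drop when released from Rap1B; series mostly up to about 150 µM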
Outline: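 Signal normalized against 6.5 mM cAMP as agonist control. Mix of EPAC2 (100 nM), RAP1B-BODIPY-GDP (250 nM) and GDP (50 uM) was read kinetically at 480/540 nm, every 5 min over 30 min, after 5 min room-temperature incubation with compound.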
% is set by controls: 0 for no effect and ±100 for the full control effect.

Chain of UniProt Q8WZA2 (Q8WZA2 whole entry, looked up): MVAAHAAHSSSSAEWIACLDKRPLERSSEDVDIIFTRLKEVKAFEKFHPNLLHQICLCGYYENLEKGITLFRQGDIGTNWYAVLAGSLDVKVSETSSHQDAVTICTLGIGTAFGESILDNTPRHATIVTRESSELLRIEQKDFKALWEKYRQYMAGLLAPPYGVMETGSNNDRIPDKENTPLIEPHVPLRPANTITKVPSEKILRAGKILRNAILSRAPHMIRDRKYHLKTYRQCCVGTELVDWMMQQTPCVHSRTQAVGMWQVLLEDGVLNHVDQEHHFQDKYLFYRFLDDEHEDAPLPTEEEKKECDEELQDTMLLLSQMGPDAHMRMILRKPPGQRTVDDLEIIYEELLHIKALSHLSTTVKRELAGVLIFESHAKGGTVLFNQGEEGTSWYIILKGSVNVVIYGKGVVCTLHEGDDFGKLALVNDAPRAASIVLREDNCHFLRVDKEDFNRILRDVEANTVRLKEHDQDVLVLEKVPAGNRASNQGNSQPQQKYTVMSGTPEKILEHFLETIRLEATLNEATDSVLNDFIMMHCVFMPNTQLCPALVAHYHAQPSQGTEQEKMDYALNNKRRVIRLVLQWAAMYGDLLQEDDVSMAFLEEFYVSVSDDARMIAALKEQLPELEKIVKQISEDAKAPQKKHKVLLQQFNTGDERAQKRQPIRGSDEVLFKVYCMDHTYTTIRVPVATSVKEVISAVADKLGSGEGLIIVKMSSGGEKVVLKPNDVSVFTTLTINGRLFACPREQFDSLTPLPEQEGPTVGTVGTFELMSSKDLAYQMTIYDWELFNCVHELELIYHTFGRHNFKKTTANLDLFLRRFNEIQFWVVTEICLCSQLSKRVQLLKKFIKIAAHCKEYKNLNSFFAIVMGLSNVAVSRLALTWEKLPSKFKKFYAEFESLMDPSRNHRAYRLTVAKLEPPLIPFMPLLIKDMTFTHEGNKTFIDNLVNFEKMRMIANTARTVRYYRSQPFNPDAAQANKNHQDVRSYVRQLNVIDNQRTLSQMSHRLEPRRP

activation, inactive:
COC(=O)C[C@H]1c2cc(F)ccc2S(=O)(=O)N1Cc1ccccc1OC -27.9%
CC(C)C[C@H](CO)N(Cc1ccccc1)S(=O)(=O)N(Cc1ccccc1)[C@@H](CO)CC(C)C -12.8%
C[N+]1(CC(=O)c2ccc(Cl)cc2)CCOCC1 -10.8%
O=C(O)CCC/C=C\C[C@@H]1[C@@H](/C=C/[C@@H](O)COc2cccc(C(F)(F)F)c2)[C@H](O)C[C@@H]1O -4.02%
Clc1ccccc1-c1nc(NCCN2CCOCC2)c2ccccc2n1 3.1%
Cc1ccccc1-c1cc(NCCN2CCOCC2)ncn1 -22.6%
COc1cccc(OC)c1OCCNCC1COc2ccccc2O1 (centres undefined) 1.86% and 4.97% and 12.8%
CC(C)C1NC(C(=O)O)Cc2c1[nH]c1ccccc21 (centres undefined) 5.89%
CN(C)C(=O)c1ccc(-c2ccc3ncnc(NC4CC4)c3c2)cc1 -6.73%
CC[C@@H]1OC(=O)[C@@H](C)[C@H](O[C@H]2C[C@@](C)(OC)[C@@H](O)[C@H](C)O2)C(C)[C@H](O[C@H]2O[C@@H](C)C[C@@H](N(C)C)[C@@H]2O)[C@@](C)(O)C[C@H](C)C(=O)[C@@H](C)[C@H](O)[C@@]1(C)O (some centres undefined) 7.16%
CCOc1ccc(C(=O)c2ccc(OC)c(O)c2O)cc1 2.14%
CC1C(O)CC2C(C(=O)O)=CO[C@@H](O[C@H]3OC(CO)C(O)C(O)C3O)C21 (some centres undefined) -11.1%
O=c1c(CCc2ccccc2)nc2cnc(N3CCOCC3)nc2n1Cc1cccs1 -7.31%
O=C1NCN(c2ccccc2)C12CCN(CCCC(c1ccc(F)cc1)c1ccc(F)cc1)CC2 22.8% and 12.3%
CN1CCN(c2ncc3ncc(=O)n(Cc4cccs4)c3n2)CC1 -3.76%
Cc1nn(-c2ccccc2)c(C)c1CC(=O)NCC1Cc2cc(F)cc(-c3cccnc3)c2O1 (centres undefined) -6.59%
N#Cc1cccc(-c2nc(NCCN3CCOCC3)c3ccccc3n2)c1 -16.9%
CC(=O)NC(CCC(=O)O)C(=O)O (centres undefined) -5.72%
O=c1c(-c2ccccc2)nc2cnc(Nc3ccccc3)nc2n1C[C@H]1CCCO1 10.6%
CCc1cc[n+](CC(=O)c2ccc(F)cc2)cc1C(=O)O -29.4%
COc1cc(CN2CCC3(CCC(CNC(=O)c4ccco4)O3)CC2)cc(OC)c1 (centres undefined) 4.43%
NC(Cc1c[nH]c2ccccc12)C(=O)NCC(=O)O (centres undefined) -1.77%
Cc1noc(C)c1-c1nc(N2CCOCC2)c2ccccc2n1 -19%
O=C(c1cc(C(F)(F)F)cc(C(F)(F)F)c1)N1CCC2(CC1)CN(c1ccccc1)C2 -30%
CC(=O)CCC(=O)O 4.7%
CC(CN1c2ccccc2Sc2cccnc21)N(C)C (centres undefined) -7.67%
Cc1c(C(=O)N2CC3CCC2C3)sc2ncnc(NCCc3ccccn3)c12 (centres undefined) -9.05%
O=c1c(-c2cccs2)nc2cnc(N3CCOCC3)nc2n1-c1ccccc1 17.6%
CC(C)(C)C(=O)OCOC(=O)[C@@H]1N2C(=O)[C@@H](NC(=O)[C@H](N)c3ccccc3)[C@H]2SC1(C)C -49.1%
O=C(OCc1ccccc1)c1ccc(O)cc1 -45%
COc1ccc(-c2cn(Cc3ccc(C)cc3)nn2)cc1 -10.3%
N#Cc1cccc(-c2nc3cnc(N4CCNCC4)nc3n(C3CC3)c2=O)c1 19.4%
CN(C)CCC(O)(c1ccccc1)c1ccccc1Cl (centres undefined) 6.55%
CCN1CCCC1CNC(=O)c1cnn(-c2nccc(-c3cc4ccccc4o3)n2)c1C1CC1 (centres undefined) 5.66%
N=C1N=C(N)c2cc3ccccc3cc21 -8.12%
c1ccc(C(c2ccccc2)N2CC[C@@]3(CCCNC3)C2)cc1 -7.19%
COCCn1c(=O)c(-c2cccc(C#N)c2)nc2cnc(OC)nc21 -4.11%
Nc1ccc(-c2ccc3ccccc3n2)cc1 -42.8%
Cc1onc(-c2ccc3c(c2)OCO3)c1-c1ccc2[nH]ccc2c1 -19.7%
COc1ccc(-n2c(=O)c(-c3cn(C)c4ccccc34)nc3cncnc32)cc1 -11.7%
O=[N+]([O-])c1ccc2c(c1)S(=O)(=O)C=C2 -15.8%
C=CC1=C(C(=O)O)N2C(=O)[C@@H](NC(=O)/C(=N/OCC(=O)O)c3csc(N)n3)[C@H]2SC1 (stereo in doubt) -0.711%
Clc1ccccc1-c1ccc2ncnc(NCc3cccnc3)c2c1 -5.6%
O=C(Nc1nc2ccccc2n1CCN1CCOCC1)c1cccc([N+](=O)[O-])c1 -8.72%
O=C(c1ccco1)N1CCC2(CC1)CCN(c1ccncc1)CC2 -18.3%
Cc1ccccc1-c1cc(NCc2cccnc2)ncn1 -4.72%
CC(C)COC(=O)OCN1C(=O)CN(CCN2CC(=O)N(COC(=O)OCC(C)C)C(=O)C2)CC1=O -4.64% and -34.6%
O=S1(=O)CCOC[C@H](c2ccccc2)N1Cc1ccc(Cl)cc1Cl 3.29%
CC(=O)SCC[N+](C)(C)C -15%
NC(=O)Cc1cccc(C(=O)c2ccccc2)c1N -6.98%
CN(Cc1ccco1)c1ncncc1-c1ccccc1Cl 0.819%
O=C(Nc1ccccc1)O[C@@H]1C[C@H]2CCC(=O)N3CC[C@@H](C1)[C@@H]23 -20.5%
Cc1cc(C(=O)Nc2cccc(-c3nc(CNC(=O)c4cc5ccccc5[nH]4)c(C)o3)c2)c(C)o1 -0.97%
CCCCC[C@H](O)/C=C/[C@H]1C=CC(=O)[C@@H]1CCCCCCC(=O)O -3.6%
CCCCOC(=O)c1ccc(N)cc1 -11.1%
NCCCCCCNS(=O)(=O)c1ccc2c(Cl)cccc2c1 -0.832%
CN1CCCCCC1C(=O)NCCN1Cc2ccccc2OC(c2ccsc2)C1 (centres undefined) -6.04%
O=C(Nc1ccc(C(=O)O)c(O)c1)c1ccccc1 -3.43%
CN(C)c1c(Cl)cc(/C=C/c2ccnc3ccccc23)cc1Br -18.9%
CN(C)/N=N/c1nc[nH]c1C(N)=O -18.2% and -16.2%
CC1=CC2C(C)(C)CC(=O)C[C@]2(C)CC1COc1ccc2c(c1)CC(=O)C=C2 (some centres undefined) -12.9%
COc1ccc(CNc2ncnc3ccc(-c4cccc(NS(C)(=O)=O)c4)cc23)c(OC)c1 7.62%
Cc1nc2cnc(N3CCN(C)CC3)nc2n(C[C@H]2CCCO2)c1=O -8.25%
CCCCCC1Nc2cc(C(F)(F)F)c(S(N)(=O)=O)cc2S(=O)(=O)N1 (centres undefined) 5.78%
CN1CCN(c2ncc3nc(-c4ccccc4)c(=O)n(CCc4ccccc4)c3n2)CC1 -32.1%
CCn1c(-c2ccccc2F)nc2cc(NC(C)=O)cc(C(=O)N3CCCCC3c3nccn3C)c21 (centres undefined) 2.78%
CC[C@]1(O)C[C@H]2CN(CCC3=c4ccccc4=N[C]3[C@@](C(=O)OC)(c3cc4c(cc3OC)N(C)[C@H]3[C@@](O)(C(N)=O)[C@H](O)[C@]5(CC)C=CCN6CC[C@]43[C@@H]65)C2)C1 -27.6%
CCn1c(-c2cccnc2)nc2cc(NC(=O)COC)cc(C(=O)N3CC[C@@H]4CCCC[C@H]4C3)c21 -10.2%
COc1[nH]c2ccc(F)cc2c1C(=O)OCC1CCN(CCNS(C)(=O)=O)CC1 -11.6%
O=[N+]([O-])c1cccc(S(=O)(=O)NCCNS(=O)(=O)c2cccc([N+](=O)[O-])c2)c1 -7.42%
COc1ccccc1-n1cc(CN2CCOc3ccc(CN4C[C@@H](C)O[C@@H](C)C4)cc3C2)cn1 7.27%
COc1cccc(-c2cnc(-c3ccncc3)nc2C2CCN(C(=O)Cc3csc(C)n3)CC2)c1 -41.6%
CCn1nc(C)c(CN2CCC3(CCC(CNC(=O)c4ccccc4)O3)CC2)c1C (centres undefined) -7.73%
COC(=O)/C=C/c1ccc2c(c1)S(=O)(=O)N(c1cccc(OC)c1)[C@H]2CC(=O)OC -2.12%
CCOc1ccc2c(c1)C(C)=CC(C)(C)N2 -10.3% and -24.6%
CCOC(=O)[C@H](CCc1ccccc1)N[C@@H](C)C(=O)N1[C@H](C(=O)O)C[C@@H]2CCC[C@@H]21 -0.75%
COCCn1c(=O)c(-c2cccs2)nc2cnc(OCc3ccccc3)nc21 -6.12%
COc1ccc(CNc2ncnc3ccc(-c4ccccc4C#N)cc23)c(OC)c1 -9.78%
NC(=O)c1ncn([C@@H]2O[C@H](CO)[C@@H](O)[C@H]2O)n1 2.3% and -5.32%
COc1ccccc1CN1CCC2(CCNCC2)CC1 3.59%
O=C1CC(C(=O)N2CCOc3ccc(CN4CCC(Oc5cccnc5)CC4)cc3C2)c2ccccc21 (centres undefined) -19%
CCC(CC)(CC(=O)Nc1cccc(/C=C/c2nc(C3CCC3)cs2)c1)C(=O)O -13.8%
CN(C)c1ccc(C=O)c(Cl)c1 -23.7%
COC(=O)[C@@H](CC(C)C)NS(=O)(=O)N(Cc1ccccc1)[C@@H](CC(C)C)C(=O)OC -22.1%

From PubChem BioAssay AID1645887 (National Center for Advancing Translational Sciences (NCATS), 2021)
